Here are results for 90 molecules from paper PMC4336329 (PLoS ONE, 2015).

Out of some 310,000 compounds screened, about 2,200 (0.71%) showed an effect of 50% or more. The effect is printed as a negative number. Some of the results follow.

The target in this assay is human ether-à-go-go-related gene (hERG) potassium channel (human, UniProt Q12809). Description: primary screen, population patch clamp on CHO cells stably expressing hERG.
human ether-à-go-go-related gene (hERG) potassium channel, sequence (Q12809 whole entry, looked up): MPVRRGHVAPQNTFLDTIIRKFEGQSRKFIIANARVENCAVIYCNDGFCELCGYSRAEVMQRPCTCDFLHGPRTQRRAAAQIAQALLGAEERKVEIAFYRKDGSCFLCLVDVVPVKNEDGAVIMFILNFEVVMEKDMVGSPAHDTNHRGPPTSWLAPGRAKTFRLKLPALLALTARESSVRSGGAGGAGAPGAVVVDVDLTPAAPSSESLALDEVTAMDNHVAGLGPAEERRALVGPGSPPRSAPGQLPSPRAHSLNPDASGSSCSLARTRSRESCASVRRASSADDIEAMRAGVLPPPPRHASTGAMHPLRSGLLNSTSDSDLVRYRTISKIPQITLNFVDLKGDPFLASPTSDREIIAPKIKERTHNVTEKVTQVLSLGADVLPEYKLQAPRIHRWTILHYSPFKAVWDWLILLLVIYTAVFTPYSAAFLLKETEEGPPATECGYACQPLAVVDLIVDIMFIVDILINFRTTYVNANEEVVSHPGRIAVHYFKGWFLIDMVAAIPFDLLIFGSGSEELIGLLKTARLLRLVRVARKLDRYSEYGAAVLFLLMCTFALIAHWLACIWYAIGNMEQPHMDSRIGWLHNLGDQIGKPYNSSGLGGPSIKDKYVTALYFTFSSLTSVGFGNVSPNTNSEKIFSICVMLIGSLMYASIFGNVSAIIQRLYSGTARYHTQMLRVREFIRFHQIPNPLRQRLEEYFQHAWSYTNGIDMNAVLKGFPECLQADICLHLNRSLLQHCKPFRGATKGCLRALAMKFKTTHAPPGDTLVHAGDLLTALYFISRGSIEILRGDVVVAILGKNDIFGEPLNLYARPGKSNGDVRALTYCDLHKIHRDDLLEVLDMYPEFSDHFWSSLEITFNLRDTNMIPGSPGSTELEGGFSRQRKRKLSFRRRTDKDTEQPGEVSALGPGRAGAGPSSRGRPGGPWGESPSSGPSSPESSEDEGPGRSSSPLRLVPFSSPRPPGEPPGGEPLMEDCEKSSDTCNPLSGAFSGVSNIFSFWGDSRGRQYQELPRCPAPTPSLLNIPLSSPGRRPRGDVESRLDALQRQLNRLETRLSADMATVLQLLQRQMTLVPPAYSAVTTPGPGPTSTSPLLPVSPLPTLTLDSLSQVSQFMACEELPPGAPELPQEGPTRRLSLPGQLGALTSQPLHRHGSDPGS
`N#CC1=C(N)N(c2ccc(Oc3ccccc3)cc2)C(=O)C1`: the “hERG current change (%, negative = inhibition) at 1uM” value is reported as 3.02%.
In the case of `COc1ccccc1C(=O)Nc1ccc(N2CCCCC2)cc1`, the “hERG current change (%, negative = inhibition) at 1uM” value amounted to 1.06%.
Regarding `CS(=O)(=O)N(CC(=O)NCc1ccc2c(c1)OCO2)c1ccc(Cl)cc1`, the “hERG current change (%, negative = inhibition) at 1uM” value turned out to be 6.98%.
Regarding `CCOC(=O)[C@@H]1[C@H]2COc3cc(OC)ccc3[C@@H]2N2C(=O)N(c3ccc(C)cc3)C(=O)[C@]12C`, the “hERG current change (%, negative = inhibition) at 1uM” value is 10.1%.
Regarding `O=S(=O)(NCc1cccs1)c1ccc(Cl)s1`, the “hERG current change (%, negative = inhibition) at 1uM” value is listed as 16.1%.
In the case of `O=C(NNc1ccccc1[N+](=O)[O-])Nc1cccc(Cl)c1`, the “hERG current change (%, negative = inhibition) at 1uM” value is given as 17.2%.
As to `O=C(NNC1CC(=O)N(c2ccc(Br)cc2)C1=O)c1ccco1` (stereo not drawn), the “hERG current change (%, negative = inhibition) at 1uM” value is on record as 13.4%.
In the case of `O=C(CSc1nnc(-c2ccccc2)n1Cc1ccco1)Nc1ccc2c(c1)OCCO2`, the “hERG current change (%, negative = inhibition) at 1uM” value is given as 8.16%.
In the case of `O=C(c1ccc(Br)cc1)c1cc([N+](=O)[O-])ccc1N1CCCCC1`, the “hERG current change (%, negative = inhibition) at 1uM” value amounted to 2.24%.
`COc1cccc(C2=NOC(C(=O)Nc3cccnc3Cl)C2)c1OC` (stereo not drawn): the “hERG current change (%, negative = inhibition) at 1uM” value is 14.2%.
In the case of `COC(=O)c1ccc(C(=O)OC)c(NC(=O)CN2CCC(C)CC2)c1`, the “hERG current change (%, negative = inhibition) at 1uM” value was found to be 28%.
With `Cc1cc(N2CCCC2=O)ccc1S(=O)(=O)NC1CCCCC1`, the “hERG current change (%, negative = inhibition) at 1uM” value is 13.2%.
Take `c1ccc(COCC2CCNCC2)cc1`: the “hERG current change (%, negative = inhibition) at 1uM” value was determined as 17.8%.
For the molecule `COc1ccc([N+](=O)[O-])c(S(=O)(=O)c2ccccc2)n1`, the “hERG current change (%, negative = inhibition) at 1uM” value is recorded as 11.3%.
Turning to `CSc1cccc(NC(=O)C2CCN(C(=O)c3ccccc3C)CC2)c1`, the “hERG current change (%, negative = inhibition) at 1uM” value was 12.3%.
As for `CCCSc1ccc(-c2nn(-c3ccccc3)cc2/C=C(/C#N)C(=O)NCCCOC)cc1`, the figure is 6.97%.
`O=C(CCN1C(=O)/C(=C/c2ccc(Cl)cc2)SC1=S)NC1C=CS(=O)(=O)C1` (stereo not drawn): the “hERG current change (%, negative = inhibition) at 1uM” value is -2.52%.
Regarding `COc1ccc(NC(=O)CN2C(=O)NC3(CCCC3)C2=O)cc1OC`, the “hERG current change (%, negative = inhibition) at 1uM” value is reported as 13.7%.
On to `COc1ccccc1NC(=O)Cn1c2ccc(F)cc2c2nc3n(c(=O)c21)CCS3`, for which the “hERG current change (%, negative = inhibition) at 1uM” value is on record as 9.38%.
Take `O=C1CC(Sc2ccc(Cl)cc2)C(=O)N1c1ccc2c(c1)OCCO2` (stereo not drawn): the “hERG current change (%, negative = inhibition) at 1uM” value was 14.3%.
Consider `COc1ccc(-c2csc(NC(=O)Nc3ccccc3)n2)cc1`, for which the “hERG current change (%, negative = inhibition) at 1uM” value turned out to be 13.3%.
As for `CCOC(=O)C(O)(CC(=O)c1ccc(Cl)cc1)C(=O)OCC`, the “hERG current change (%, negative = inhibition) at 1uM” value is listed as 7.58%.
For the molecule `O=C(CCCn1c(=S)[nH]c2ccsc2c1=O)NCCc1ccccc1`, the “hERG current change (%, negative = inhibition) at 1uM” value was found to be 14.2%.
As for `O=C(NCc1ccco1)C(NS(=O)(=O)c1cccc2nsnc12)c1ccccc1` (stereo not drawn), the figure is 7.81%; as for `O=C(c1ccc(-c2ccccc2)c(F)c1)C1CCCN(CCCn2cccn2)C1` (stereo not drawn), -38.6%.
As for `CN1CCN(C2=Cc3ccccc3Sc3cc(F)c(F)cc32)CC1.CS(=O)(=O)O`, the “hERG current change (%, negative = inhibition) at 1uM” value came out at 6.5%.
Take `Cc1cccc(OCc2nc(-c3ccc(-n4cccc4)cc3)no2)c1`: the “hERG current change (%, negative = inhibition) at 1uM” value turned out to be 12.2%.
As to `O=C(CN1CCN(c2ncccn2)CC1)NCc1ccc2c(c1)OCO2`, the “hERG current change (%, negative = inhibition) at 1uM” value worked out at 13.7%.
In the case of `O=C(CSc1nnnn1-c1ccccc1)Nc1ccc(Cl)cc1`, the “hERG current change (%, negative = inhibition) at 1uM” value is on record as -9.11%.
In the case of `CC1(C)C(=O)NCCN1C(=O)CCCC(=O)O`, the “hERG current change (%, negative = inhibition) at 1uM” value was 1.31%.
Regarding `CCOc1c(Br)cc(CNc2ncn[nH]2)cc1OC`, the “hERG current change (%, negative = inhibition) at 1uM” value was found to be 9.07%.
Next, `CCCc1cc(NCCCN2CCOCC2)n2c(nc3ccccc32)c1C#N`: -37%; `CCCCc1nc2ccccc2c(=O)n1-c1ccccc1[N+](=O)[O-]`: 10.5%; `CCOC(=O)c1c(NC(=O)CSc2n[nH]c(-c3ccco3)n2)sc(C)c1C`: 10.3%.
For the molecule `COc1ccc2c(c1OC)C(=O)OC2CC(=O)c1ccc(O)cc1` (stereo not drawn), the “hERG current change (%, negative = inhibition) at 1uM” value was determined as 5.01%.
As for `Cc1cc(C)c(Cn2c3ccccc3c3cnn(CC(=O)NCCN4CCOCC4)c(=O)c32)c(C)c1`, the “hERG current change (%, negative = inhibition) at 1uM” value amounted to 11.5%.
As for `C=CCn1c(O)c(C(CC)=NC2CC2)c(=O)[nH]c1=O`, the figure is 7.5%; as for `Cc1ccc(NC(=O)c2nnn(-c3ccc4c(c3)OCCO4)c2N)cc1`, 13.9%.
Next, `COC(=O)c1ccc(C(=O)OC)c(NC(=O)c2cccnc2)c1`: 10.6%; `Cc1ccsc1C1C(C#N)=C(N)OC2=C1C(=O)CC(C)(C)C2` (stereo not drawn): 3.48%; `CC(=O)[C@H]1[C@H](C#N)C[C@H]2[C@@H]3CC=C4C[C@@H](O)CC[C@]4(C)[C@H]3CC[C@@]21C`: 13.8%.
Take `CC(=O)c1ccc(NC(=O)CCc2c(C)nn(-c3ccc(N4CCOCC4)nn3)c2C)cc1`: the “hERG current change (%, negative = inhibition) at 1uM” value worked out at 11.4%.
As for `O=C(O)CCCc1nc(-c2ccc(Cl)cc2)no1`, the figure is 2.59%.
As for `NC(=S)COc1ccccc1`, the figure is 11.6%.
Next, `C#CC[N+]1(C)[C@@H]2CC(OC(=O)C(CO)c3ccccc3)C[C@H]1C(O)C2.[Br-]` (stereo partly drawn): 2.35%.
For `O=C(NCCO)/C(=C\c1ccco1)NC(=O)c1ccco1`, the “hERG current change (%, negative = inhibition) at 1uM” value was determined as 3.44%.
Consider `COc1ccc(Cl)cc1C(=O)CSc1nc(N)cc(N)n1`, for which the “hERG current change (%, negative = inhibition) at 1uM” value came out at 6.37%.
Take `CN(Cc1cc(=O)n2ccsc2n1)Cc1nc2ccccc2c(=O)[nH]1`: the “hERG current change (%, negative = inhibition) at 1uM” value came to 4.7%.
Regarding `NC(=O)c1ccccc1NC(=O)CCCCCn1nnc2ccccc2c1=O`, the “hERG current change (%, negative = inhibition) at 1uM” value is 4.56%.
Consider `CN1CCN(c2ccc(NC(=O)c3cc([N+](=O)[O-])ccc3N3CCOCC3)cc2)CC1`, for which the “hERG current change (%, negative = inhibition) at 1uM” value is listed as -5.88%.
`CCCCc1nnc(NC(=O)CSc2nc(N)cc(=O)[nH]2)s1`: the “hERG current change (%, negative = inhibition) at 1uM” value was 11.1%.
Next, `Cc1c2cn[nH]c(=O)c2c(C)n1Cc1ccc(F)cc1`: 7.34%; `O=C(/C=C/Nc1cccc(C(F)(F)F)c1)c1ccco1`: 11.2%; `O=C(CN1CCN(Cc2ccccc2Cl)CC1)N/N=C/c1cccs1`: 9.84%.
In the case of `CCCCc1c(C)nc(N)[nH]c1=O`, the “hERG current change (%, negative = inhibition) at 1uM” value worked out at 14.5%.
Regarding `CC(C)Oc1ccc(C2CC(=O)N(c3cccc(C(=O)O)c3)C2=O)cc1` (stereo not drawn), the “hERG current change (%, negative = inhibition) at 1uM” value was 12.9%.
On to `Cc1nonc1C(=O)N/N=C/c1ccc(O)cc1O`, for which the “hERG current change (%, negative = inhibition) at 1uM” value was determined as 11.7%.
In the case of `COc1cccc(-n2nnc3c(=O)n(C/C=C/c4ccccc4)cnc32)c1`, the “hERG current change (%, negative = inhibition) at 1uM” value is 3.43%.
Turning to `C=CCC1(N(C(C)=O)c2ccccc2)CCCCC1`, the “hERG current change (%, negative = inhibition) at 1uM” value is -6.45%.
On to `COc1cc(-c2nc3ccccn3c2/N=C/c2cccc(OC)c2O)ccc1O`, for which the “hERG current change (%, negative = inhibition) at 1uM” value was determined as 3.1%.
In the case of `CC(c1nc2ccccc2c(=O)[nH]1)N(C)CCOc1ccc(Cl)cc1` (stereo not drawn), the “hERG current change (%, negative = inhibition) at 1uM” value is given as 3.02%.
As for `CCCn1c(SCc2nc(N)nc(N3CCCCC3)n2)nc2c1c(=O)n(C)c(=O)n2C`, the figure is 5.4%.
For `COc1ccc(C(=O)C(C)OC(=O)c2sc(C)nc2C)cc1` (stereo not drawn), the “hERG current change (%, negative = inhibition) at 1uM” value is given as 10%.
For `Cc1c(N=C(N)/N=C(\N)Nc2ccccc2)c(=O)n(-c2ccccc2)n1C`, the “hERG current change (%, negative = inhibition) at 1uM” value turned out to be 6.7%.
Regarding `Cc1ccc(Cn2ccc(NC(=O)CCSc3nc(-c4ccco4)cc(C(F)(F)F)n3)n2)cc1`, the “hERG current change (%, negative = inhibition) at 1uM” value was determined as 4.4%.
Turning to `Cc1ccc(-n2c(CCc3ccccc3)n[nH]c2=S)cc1C`, the “hERG current change (%, negative = inhibition) at 1uM” value worked out at 11.7%.
With `Cc1c(C(C)C)c(=O)n(-c2ccc(S(=O)(=O)N3CCOCC3)cc2)n1C`, the “hERG current change (%, negative = inhibition) at 1uM” value is 8.06%.
For the molecule `COc1ccc(CCNC(=O)CSc2nnc(-c3ccccc3)o2)cc1OC`, the “hERG current change (%, negative = inhibition) at 1uM” value was found to be 0.157%.
As to `COc1ccc(-n2c(SCC(=O)NCCCN3CCCC3=O)nnc2C(C)N2CCCCC2)cc1` (stereo not drawn), the “hERG current change (%, negative = inhibition) at 1uM” value came to 15%.
For `N#CC1=C(N)Oc2n[nH]c(-c3cccs3)c2C1c1ccco1` (stereo not drawn), the “hERG current change (%, negative = inhibition) at 1uM” value is on record as 16.8%.
As for `CCOC(=O)c1cc2c(=O)c3cc(C)ccc3oc2nc1C`, the figure is 14.8%; as for `Cn1c(=O)n(/N=C/c2ccccc2)c2ccccc21`, 9.38%; as for `CCCNC(=O)N(C)c1nncnc1C(=O)NC`, 5.97%.
Turning to `CC(C)(C)c1cccc(OCCCSc2ncccn2)c1`, the “hERG current change (%, negative = inhibition) at 1uM” value was 1.69%.
Next, `COC(=O)c1ccccc1NC(=O)Nc1ccc(Br)cn1.Cl`: 13.1%.
Next, `CCCOc1ccc(N2C(=O)CC(N(CCc3ccccc3)C(=O)c3ccccc3)C2=O)cc1` (stereo not drawn): 12.9%; `CCc1ccccc1NC(=O)NCc1ccccn1`: 12%; `Cc1ccccc1C(=O)N1CCC(C(=O)N2CCN(c3ncccn3)CC2)CC1`: 8.94%.
For `O=S(=O)(c1ccccc1)c1nc(-c2ccccc2Cl)oc1NCCN1CCOCC1`, the “hERG current change (%, negative = inhibition) at 1uM” value is recorded as 1.14%.
On to `CCCOc1ccc(/C=N/NC(=O)c2ccc3c(c2)OCO3)c(OCCC)c1`, for which the “hERG current change (%, negative = inhibition) at 1uM” value worked out at 8.54%.
Turning to `COc1ccc(COC(=O)CCc2c[nH]c3ccccc23)cc1F`, the “hERG current change (%, negative = inhibition) at 1uM” value came out at 17.6%.
In the case of `N#CC1=C(N)OC2=C(C(=O)CCC2)C12C(=O)N1CCCc3cccc2c31` (stereo not drawn), the “hERG current change (%, negative = inhibition) at 1uM” value is recorded as 8.35%.
With `CCCN1C2CCCC1CC(NC(=O)c1cccc([N+](=O)[O-])c1)C2` (stereo not drawn), the “hERG current change (%, negative = inhibition) at 1uM” value was -4.26%.
Next, `Cc1ccc2c(c1)c(=O)c1c3n2CCN(CC#N)C3CC1` (stereo not drawn): 12.3%; `Cc1ccc(S(=O)(=O)N2CCOCC2)cc1C(=O)N1CCN(S(=O)(=O)c2cccc(F)c2)CC1`: 10.9%.
Consider `O=C1CCN(CCc2ccccc2)CCN1CCO`, for which the “hERG current change (%, negative = inhibition) at 1uM” value is recorded as 9.41%.
As for `COc1cccc(C(=O)NCCS(=O)(=O)N2CCCC2)c1`, the figure is -3.42%; as for `COc1ccc(C(=O)NCCN2CCOCC2)c(OC)c1`, 15%.
As for `COc1cc(C2c3[nH]c4ccccc4c3CCN2Cc2cn(C)nc2C)ccc1F` (stereo not drawn), the “hERG current change (%, negative = inhibition) at 1uM” value is reported as 13.9%.
As to `COC(=O)c1ccccc1N=Nc1c(C)[nH][nH]c1=O`, the “hERG current change (%, negative = inhibition) at 1uM” value is on record as 8.34%.
